# The list shows a part of the results.
# B1: AT1G15820(NC) (Arabidopsis thaliana) (protein)
# chain: MAMAVSGAVLSGLGSSFLTGGKRGATALASGVGDAIAPFSFGSLLGTQLLLMGWVESKRWVDFFNPDSQSVEWATPWSKTAENFANYTGDQGYPGGRFFDPLGLAGKNRDGVYEPDFEKLERLKLAEIKHSRLAMVAMLIFYFEAGQGKTPLGALGL
# How the values were obtained:
# Assay in all cases: glycan array binding signal (z-score within array); higher = stronger binding
# Details in all cases: glycan notation: IUPAC condensed, linker removed
# [1] = biological target: Fuc(a1-2)Gal6S(b1-3)GlcNAc6S
# In short: (§1)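 Columns mapping to the same glycan were averaged after glycan names were converted to IUPAC-condensed notation. The data come from 3228 arrays in the Consortium for Functional Glycomics database, limited to those with an available protein sequence. Binding is reported as a within-array Z-score averaged across arrays of one protein sequence and across linkers.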
# [2] = biological target: Fuc(a1-2)Gal6S(b1-4)Glc
# In short: as §1
# [3] = biological target: Fuc(a1-2)Gal6S(b1-4)Glc6S
# In short: as §1
# [4] = biological target: Fuc(a1-2)[Gal(a1-3)]Gal
# In short: as §1
# [5] = biological target: Fuc(a1-2)[Gal(a1-3)]Gal(b1-3)GalNAc
# In short: as §1
# [6] = biological target: Fuc(a1-2)[Gal(a1-3)]Gal(b1-3)GalNAc(b1-3)Gal(a1-4)Gal(b1-4)Glc
# In short: as §1
# [7] = biological target: Fuc(a1-2)[Gal(a1-3)]Gal(b1-3)GlcNAc
# In short: as §1
# [8] = biological target: Fuc(a1-2)[Gal(a1-3)]Gal(b1-3)GlcNAc(b1-2)Man(a1-3)[Fuc(a1-2)[Gal(a1-3)]Gal(b1-3)GlcNAc(b1-2)Man(a1-6)]Man(b1-4)GlcNAc(b1-4)GlcNAc
# In short: as §1
# [9] = biological target: Fuc(a1-2)[Gal(a1-3)]Gal(b1-3)GlcNAc(b1-2)Man(a1-3)[Fuc(a1-2)[Gal(a1-3)]Gal(b1-3)GlcNAc(b1-2)Man(a1-6)]Man(b1-4)GlcNAc(b1-4)[Fuc(a1-6)]GlcNAc
# In short: as §1
# [10] = biological target: Fuc(a1-2)[Gal(a1-3)]Gal(b1-3)GlcNAc(b1-3)GalNAc
# In short: as §1
# [11] = biological target: Fuc(a1-2)[Gal(a1-3)]Gal(b1-3)GlcNAc(b1-6)GalNAc
# In short: as §1
# [12] = biological target: Fuc(a1-2)[Gal(a1-3)]Gal(b1-4)Glc
# In short: as §1
# [13] = biological target: Fuc(a1-2)[Gal(a1-3)]Gal(b1-4)GlcNAc
# In short: as §1
# [14] = biological target: Fuc(a1-2)[Gal(a1-3)]Gal(b1-4)GlcNAc(b1-2)Man
# In short: as §1
# [15] = biological target: Fuc(a1-2)[Gal(a1-3)]Gal(b1-4)GlcNAc(b1-2)Man(a1-3)[Fuc(a1-2)[Gal(a1-3)]Gal(b1-4)GlcNAc(b1-2)Man(a1-6)]Man(b1-4)GlcNAc(b1-4)GlcNAc
# In short: as §1
# [16] = biological target: Fuc(a1-2)[Gal(a1-3)]Gal(b1-4)GlcNAc(b1-2)Man(a1-3)[Fuc(a1-2)[Gal(a1-3)]Gal(b1-4)GlcNAc(b1-2)Man(a1-6)]Man(b1-4)GlcNAc(b1-4)[Fuc(a1-6)]GlcNAc
# In short: as §1
# [17] = biological target: Fuc(a1-2)[Gal(a1-3)]Gal(b1-4)GlcNAc(b1-3)GalNAc
# In short: as §1
# [18] = biological target: Fuc(a1-2)[Gal(a1-3)]Gal(b1-4)GlcNAc(b1-3)[Fuc(a1-2)[Gal(a1-3)]Gal(b1-4)GlcNAc(b1-6)]GalNAc
# In short: as §1
# [19] = biological target: Fuc(a1-2)[Gal(a1-3)]Gal(b1-4)GlcNAc(b1-6)GalNAc
# In short: as §1
# [20] = biological target: Fuc(a1-2)[Gal(a1-3)]Gal(b1-4)[Fuc(a1-3)]Glc
# In short: as §1
# [21] = biological target: Fuc(a1-2)[Gal(a1-3)]Gal(b1-4)[Fuc(a1-3)]GlcNAc
# In short: as §1
# [22] = biological target: Fuc(a1-2)[Gal(a1-3)]Gal(b1-4)[Fuc(a1-3)]GlcNAc(b1-3)GalNAc
# In short: as §1
# [23] = biological target: Fuc(a1-2)[Gal(a1-4)]Gal(b1-4)GlcNAc
# In short: as §1
# [24] = biological target: Fuc(a1-2)[GalNAc(a1-3)]Gal
# In short: as §1
# [25] = biological target: Fuc(a1-2)[GalNAc(a1-3)]Gal(b1-3)GalNAc(a1-3)[Fuc(a1-2)]Gal(b1-4)GlcNAc
# In short: as §1
# [26] = biological target: Fuc(a1-2)[GalNAc(a1-3)]Gal(b1-3)GalNAc(b1-3)Gal(a1-4)Gal(b1-4)Glc
# In short: as §1
# [27] = biological target: Fuc(a1-2)[GalNAc(a1-3)]Gal(b1-3)GlcNAc
# In short: as §1
# [28] = biological target: Fuc(a1-2)[GalNAc(a1-3)]Gal(b1-3)GlcNAc(b1-2)Man(a1-3)[Fuc(a1-2)[GalNAc(a1-3)]Gal(b1-3)GlcNAc(b1-2)Man(a1-6)]Man(b1-4)GlcNAc(b1-4)GlcNAc
# In short: as §1
# [29] = biological target: Fuc(a1-2)[GalNAc(a1-3)]Gal(b1-3)GlcNAc(b1-2)Man(a1-3)[Fuc(a1-2)[GalNAc(a1-3)]Gal(b1-3)GlcNAc(b1-2)Man(a1-6)]Man(b1-4)GlcNAc(b1-4)[Fuc(a1-6)]GlcNAc
# In short: as §1
# [30] = biological target: Fuc(a1-2)[GalNAc(a1-3)]Gal(b1-3)GlcNAc(b1-3)GalNAc
# In short: as §1
# [31] = biological target: Fuc(a1-2)[GalNAc(a1-3)]Gal(b1-3)GlcNAc(b1-6)GalNAc
# In short: as §1
# [32] = biological target: Fuc(a1-2)[GalNAc(a1-3)]Gal(b1-4)Glc
# In short: as §1
# [33] = biological target: Fuc(a1-2)[GalNAc(a1-3)]Gal(b1-4)GlcNAc
# In short: as §1
# [34] = biological target: Fuc(a1-2)[GalNAc(a1-3)]Gal(b1-4)GlcNAc(b1-2)Man
# In short: as §1
# [35] = biological target: Fuc(a1-2)[GalNAc(a1-3)]Gal(b1-4)GlcNAc(b1-2)Man(a1-3)[Fuc(a1-2)[GalNAc(a1-3)]Gal(b1-4)GlcNAc(b1-2)Man(a1-6)]Man(b1-4)GlcNAc(b1-4)GlcNAc
# In short: as §1
# [36] = biological target: Fuc(a1-2)[GalNAc(a1-3)]Gal(b1-4)GlcNAc(b1-2)Man(a1-3)[Fuc(a1-2)[GalNAc(a1-3)]Gal(b1-4)GlcNAc(b1-2)Man(a1-6)]Man(b1-4)GlcNAc(b1-4)[Fuc(a1-6)]GlcNAc
# In short: as §1
# [37] = biological target: Fuc(a1-2)[GalNAc(a1-3)]Gal(b1-4)GlcNAc(b1-3)Gal(b1-4)GlcNAc
# In short: as §1
# [38] = biological target: Fuc(a1-2)[GalNAc(a1-3)]Gal(b1-4)GlcNAc(b1-3)Gal(b1-4)GlcNAc(b1-3)Gal(b1-4)GlcNAc
# In short: as §1
# [39] = biological target: Fuc(a1-2)[GalNAc(a1-3)]Gal(b1-4)GlcNAc(b1-3)GalNAc
# In short: as §1
# [40] = biological target: Fuc(a1-2)[GalNAc(a1-3)]Gal(b1-4)GlcNAc(b1-3)[Fuc(a1-2)[GalNAc(a1-3)]Gal(b1-4)GlcNAc(b1-6)]GalNAc
# In short: as §1
# [41] = biological target: Fuc(a1-2)[GalNAc(a1-3)]Gal(b1-4)GlcNAc(b1-6)GalNAc
# In short: as §1
# [42] = biological target: Fuc(a1-2)[GalNAc(a1-3)]Gal(b1-4)[Fuc(a1-3)]GlcNAc
# In short: as §1
# [43] = biological target: Fuc(a1-2)[GalNAc(a1-3)]Gal(b1-4)[Fuc(a1-3)]GlcNAc(b1-3)GalNAc
# In short: as §1
# [44] = biological target: Fuc(a1-2)[GalNAc(a1-4)]Gal(b1-4)GlcNAc
# In short: as §1
# [45] = biological target: Fuc(a1-2)[GalNAc(b1-3)]Gal
# In short: as §1
binder,measurement,setting,value
B1,glycan array binding signal (z-score),[1],-0.221
same,glycan array binding signal (z-score),[2],-0.058
same,glycan array binding signal (z-score),[3],-0.137
same,glycan array binding signal (z-score),[4],0.074
same,glycan array binding signal (z-score),[5],0.211
same,glycan array binding signal (z-score),[6],0.096
same,glycan array binding signal (z-score),[7],-0.395
same,glycan array binding signal (z-score),[8],-0.192
same,glycan array binding signal (z-score),[9],0.402
same,glycan array binding signal (z-score),[10],-0.396
same,glycan array binding signal (z-score),[11],-0.424
same,glycan array binding signal (z-score),[12],-0.243
same,glycan array binding signal (z-score),[13],-0.22
same,glycan array binding signal (z-score),[14],0.285
same,glycan array binding signal (z-score),[15],-0.379
same,glycan array binding signal (z-score),[16],-0.225
same,glycan array binding signal (z-score),[17],-0.05
same,glycan array binding signal (z-score),[18],-1.18
same,glycan array binding signal (z-score),[19],-0.44
same,glycan array binding signal (z-score),[20],-0.025
same,glycan array binding signal (z-score),[21],-0.28
same,glycan array binding signal (z-score),[22],0.018
same,glycan array binding signal (z-score),[23],0.706
same,glycan array binding signal (z-score),[24],-0.341
same,glycan array binding signal (z-score),[25],-0.538
same,glycan array binding signal (z-score),[26],0.293
same,glycan array binding signal (z-score),[27],-0.116
same,glycan array binding signal (z-score),[28],-0.173
same,glycan array binding signal (z-score),[29],-0.4
same,glycan array binding signal (z-score),[30],1.17
same,glycan array binding signal (z-score),[31],-0.528
same,glycan array binding signal (z-score),[32],-0.375
same,glycan array binding signal (z-score),[33],-0.399
same,glycan array binding signal (z-score),[34],-0.275
same,glycan array binding signal (z-score),[35],-0.415
same,glycan array binding signal (z-score),[36],-0.316
same,glycan array binding signal (z-score),[37],-0.397
same,glycan array binding signal (z-score),[38],0.384
same,glycan array binding signal (z-score),[39],-0.765
same,glycan array binding signal (z-score),[40],-0.627
same,glycan array binding signal (z-score),[41],-0.49
same,glycan array binding signal (z-score),[42],-0.293
same,glycan array binding signal (z-score),[43],4.75
same,glycan array binding signal (z-score),[44],-0.403
same,glycan array binding signal (z-score),[45],-0.222
